# Data taken from the supplement of paper PMC8728848.
# The list shows a part of the results.
# B1: Gal 4 (Homo sapiens), Q8K419 (protein)
# chain: MAYVPAPGYQPTYNPTLPYKRPIPGGLSVGMSVYIQGMAKENMRRFHVNFAVGQDDGADVAFHFNPRFDGWDKVVFNTMQSGQWGKEEKKKSMPFQKGKHFELVFMVMPEHYKVVVNGNSFYEYGHRLPVQMVTHLQVDGDLELQSINFLGGQPAAAPYPGAMTIPAYPAGSPGYNPPQMNTLPVMTGPPVFNPRVPYVGALQGGLTVRRTIIIKGYVLPTARNFVINFKVGSSGDIALHLNPRIGDSVVRNSFMNGSWGAEERKVAYNPFGPGQFFDLSIRCGMDRFKVFANGQHLFDFSHRFQAFQMVDTLEINGDITLSYVQI
# Experiments:
# Test in all cases: glycan array binding signal (z-score within array); higher = stronger binding
# Conditions in all cases: glycan notation: IUPAC condensed, linker removed
# [1] = target: Gal(b1-4)GlcNAc(b1-2)[Gal(b1-4)GlcNAc(b1-4)]Man(a1-3)[Gal(b1-4)GlcNAc(b1-2)[Gal(b1-4)GlcNAc(b1-6)]Man(a1-6)]Man(b1-4)GlcNAc(b1-4)GlcNAc
# How it was run: (§1)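 The Consortium for Functional Glycomics database supplied 3228 glycan arrays, of which those lacking an available protein sequence were dropped. The binding signal, a within-array Z-score, was averaged across arrays of the same protein sequence and across linkers. Negative scores can be read as non-binding.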
# [2] = target: Gal(b1-4)GlcNAc(b1-2)[Gal(b1-4)GlcNAc(b1-4)]Man(a1-3)[GlcNAc(b1-4)][Gal(b1-4)GlcNAc(b1-2)Man(a1-6)]Man(b1-4)GlcNAc(b1-4)GlcNAc
# How it was run: as §1
# [3] = target: Gal(b1-4)GlcNAc(b1-2)[Gal(b1-4)GlcNAc(b1-4)]Man(a1-3)[GlcNAc(b1-4)][Gal(b1-4)GlcNAc(b1-2)[Gal(b1-4)GlcNAc(b1-6)]Man(a1-6)]Man(b1-4)GlcNAc(b1-4)GlcNAc
# How it was run: as §1
# [4] = target: Gal(b1-4)GlcNAc(b1-2)[Gal(b1-4)GlcNAc(b1-4)]Man(a1-3)[GlcNAc(b1-4)][Gal(b1-4)GlcNAc(b1-2)[Gal(b1-4)GlcNAc(b1-6)]Man(a1-6)]Man(b1-4)GlcNAc(b1-4)[Fuc(a1-6)]GlcNAc
# How it was run: as §1
# [5] = target: Gal(b1-4)GlcNAc(b1-2)[Gal(b1-4)GlcNAc(b1-6)]Man(a1-6)[Gal(b1-4)GlcNAc(b1-2)Man(a1-3)]Man(b1-4)GlcNAc(b1-4)GlcNAc
# How it was run: as §1
# [6] = target: Gal(b1-4)GlcNAc(b1-2)[Gal(b1-4)GlcNAc(b1-6)]Man(a1-6)[Gal(b1-4)GlcNAc(b1-2)Man(a1-3)]Man(b1-4)GlcNAc(b1-4)[Fuc(a1-6)]GlcNAc
# How it was run: as §1
# [7] = target: Gal(b1-4)GlcNAc(b1-2)[Gal(b1-4)GlcNAc(b1-6)]Man(a1-6)[GlcNAc(b1-4)][Gal(b1-4)GlcNAc(b1-2)Man(a1-3)]Man(b1-4)GlcNAc(b1-4)GlcNAc
# How it was run: as §1
# [8] = target: Gal(b1-4)GlcNAc(b1-3)Gal(b1-3)GlcNAc
# How it was run: as §1
# [9] = target: Gal(b1-4)GlcNAc(b1-3)Gal(b1-4)Glc
# How it was run: as §1
# [10] = target: Gal(b1-4)GlcNAc(b1-3)Gal(b1-4)GlcNAc
# How it was run: as §1
# [11] = target: Gal(b1-4)GlcNAc(b1-3)Gal(b1-4)GlcNAc(b1-3)Gal(b1-4)GlcNAc
# How it was run: as §1
# [12] = target: Gal(b1-4)GlcNAc(b1-3)Gal(b1-4)[Fuc(a1-3)GlcNAc(b1-6)]Gal(b1-4)Glc
# How it was run: as §1
# [13] = target: Gal(b1-4)GlcNAc(b1-3)Gal(b1-4)[Fuc(a1-3)]GlcNAc(b1-3)Gal(b1-4)[Fuc(a1-3)]GlcNAc
# How it was run: as §1
# [14] = target: Gal(b1-4)GlcNAc(b1-3)GalNAc
# How it was run: as §1
# [15] = target: Gal(b1-4)GlcNAc(b1-3)[Gal(b1-4)GlcNAc(b1-6)]Gal(b1-4)GlcNAc
# How it was run: as §1
# [16] = target: Gal(b1-4)GlcNAc(b1-3)[Gal(b1-4)GlcNAc(b1-6)]GalNAc
# How it was run: as §1
# [17] = target: Gal(b1-4)GlcNAc(b1-3)[GlcNAc(b1-6)]Gal(b1-4)GlcNAc
# How it was run: as §1
# [18] = target: Gal(b1-4)GlcNAc(b1-6)Gal(b1-4)GlcNAc
# How it was run: as §1
# [19] = target: Gal(b1-4)GlcNAc(b1-6)GalNAc
# How it was run: as §1
# [20] = target: Gal(b1-4)GlcNAc(b1-6)[Gal(b1-3)]GalNAc
# How it was run: as §1
# Gal(b1-4)GlcNAc6P = target: Gal(b1-4)GlcNAc6P
# How it was run: as §1
# Gal(b1-6)Gal = target: Gal(b1-6)Gal
# How it was run: as §1
# Gal3S(b1-3)GalNAc = target: Gal3S(b1-3)GalNAc
# How it was run: as §1
# Gal3S(b1-3)GlcNAc = target: Gal3S(b1-3)GlcNAc
# How it was run: as §1
# [21] = target: Gal3S(b1-3)[Fuc(a1-4)]GlcNAc
# How it was run: as §1
# Gal3S(b1-4)Glc = target: Gal3S(b1-4)Glc
# How it was run: as §1
# Gal3S(b1-4)Glc6S = target: Gal3S(b1-4)Glc6S
# How it was run: as §1
# Gal3S(b1-4)GlcNAc = target: Gal3S(b1-4)GlcNAc
# How it was run: as §1
# Gal3S(b1-4)GlcNAc6S = target: Gal3S(b1-4)GlcNAc6S
# How it was run: as §1
# [22] = target: Gal3S(b1-4)[Fuc(a1-3)]Glc
# How it was run: as §1
# [23] = target: Gal3S(b1-4)[Fuc(a1-3)]Glc6S
# How it was run: as §1
# Gal3S4S(b1-4)GlcNAc = target: Gal3S4S(b1-4)GlcNAc
# How it was run: as §1
# Gal3S6S(b1-4)GlcNAc = target: Gal3S6S(b1-4)GlcNAc
# How it was run: as §1
# Gal3S6S(b1-4)GlcNAc6S = target: Gal3S6S(b1-4)GlcNAc6S
# How it was run: as §1
# Gal4S(b1-4)GlcNAc = target: Gal4S(b1-4)GlcNAc
# How it was run: as §1
# Gal4S6S(b1-4)GlcNAc = target: Gal4S6S(b1-4)GlcNAc
# How it was run: as §1
# Gal6P(b1-4)GlcNAc = target: Gal6P(b1-4)GlcNAc
# How it was run: as §1
# Gal6S(b1-3)GlcNAc = target: Gal6S(b1-3)GlcNAc
# How it was run: as §1
# Gal6S(b1-3)GlcNAc6S = target: Gal6S(b1-3)GlcNAc6S
# How it was run: as §1
# Gal6S(b1-4)Glc = target: Gal6S(b1-4)Glc
# How it was run: as §1
# Gal6S(b1-4)Glc6S = target: Gal6S(b1-4)Glc6S
# How it was run: as §1
# Gal6S(b1-4)GlcNAc = target: Gal6S(b1-4)GlcNAc
# How it was run: as §1
# Gal6S(b1-4)GlcNAc6S = target: Gal6S(b1-4)GlcNAc6S
# How it was run: as §1
# GalNAc(a1-3)Gal = target: GalNAc(a1-3)Gal
# How it was run: as §1
# GalNAc(a1-3)GalNAc = target: GalNAc(a1-3)GalNAc
# How it was run: as §1
binder,measurement,setting,value
B1,glycan array binding signal (z-score),[1],-0.189
same,glycan array binding signal (z-score),[2],-0.199
same,glycan array binding signal (z-score),[3],-0.215
same,glycan array binding signal (z-score),[4],-0.204
same,glycan array binding signal (z-score),[5],-0.211
same,glycan array binding signal (z-score),[6],-0.192
same,glycan array binding signal (z-score),[7],-0.214
same,glycan array binding signal (z-score),[8],0.133
same,glycan array binding signal (z-score),[9],1.11
same,glycan array binding signal (z-score),[10],0.008
same,glycan array binding signal (z-score),[11],-0.088
same,glycan array binding signal (z-score),[12],-0.185
same,glycan array binding signal (z-score),[13],-0.196
same,glycan array binding signal (z-score),[14],-0.176
same,glycan array binding signal (z-score),[15],-0.187
same,glycan array binding signal (z-score),[16],-0.176
same,glycan array binding signal (z-score),[17],-0.184
same,glycan array binding signal (z-score),[18],-0.175
same,glycan array binding signal (z-score),[19],-0.191
same,glycan array binding signal (z-score),[20],-0.059
same,glycan array binding signal (z-score),Gal(b1-4)GlcNAc6P,-0.2
same,glycan array binding signal (z-score),Gal(b1-6)Gal,-0.203
same,glycan array binding signal (z-score),Gal3S(b1-3)GalNAc,1.15
same,glycan array binding signal (z-score),Gal3S(b1-3)GlcNAc,0.315
same,glycan array binding signal (z-score),[21],-0.204
same,glycan array binding signal (z-score),Gal3S(b1-4)Glc,0.086
same,glycan array binding signal (z-score),Gal3S(b1-4)Glc6S,0.631
same,glycan array binding signal (z-score),Gal3S(b1-4)GlcNAc,-0.136
same,glycan array binding signal (z-score),Gal3S(b1-4)GlcNAc6S,0.018
same,glycan array binding signal (z-score),[22],-0.203
same,glycan array binding signal (z-score),[23],-0.189
same,glycan array binding signal (z-score),Gal3S4S(b1-4)GlcNAc,-0.211
same,glycan array binding signal (z-score),Gal3S6S(b1-4)GlcNAc,-0.205
same,glycan array binding signal (z-score),Gal3S6S(b1-4)GlcNAc6S,-0.199
same,glycan array binding signal (z-score),Gal4S(b1-4)GlcNAc,-0.209
same,glycan array binding signal (z-score),Gal4S6S(b1-4)GlcNAc,-0.199
same,glycan array binding signal (z-score),Gal6P(b1-4)GlcNAc,-0.211
same,glycan array binding signal (z-score),Gal6S(b1-3)GlcNAc,-0.207
same,glycan array binding signal (z-score),Gal6S(b1-3)GlcNAc6S,-0.196
same,glycan array binding signal (z-score),Gal6S(b1-4)Glc,-0.206
same,glycan array binding signal (z-score),Gal6S(b1-4)Glc6S,-0.201
same,glycan array binding signal (z-score),Gal6S(b1-4)GlcNAc,-0.202
same,glycan array binding signal (z-score),Gal6S(b1-4)GlcNAc6S,-0.193
same,glycan array binding signal (z-score),GalNAc(a1-3)Gal,-0.199
same,glycan array binding signal (z-score),GalNAc(a1-3)GalNAc,-0.205
